Experimental data taken from PubChem BioAssay (NCATS).
The other results are listed elsewhere or left out. These are further read-outs of the screen, such as a control signal, another cell line or another target. No call is given for them. Words in brackets tell the shape of the fitted curve; partial curves, single points and poor fits give uncertain potencies.

test: qHTS drug screen for cell cycle checkpoint inhibitors in PARPi-resistant BRCA-mutant ovarian cancer cell lines. (AID 1963452); details: PEO1/OlaR viability, CellTiter-Glo luminescence, 96 h; measured here: PEO1 parental viability
Text: Women's Malignancies Branch, Center for Cancer Research (CCR),
National Cancer Institute (NCI), National Institutes of Health (NIH), Bethesda, MD
Poly (ADP-ribose) polymerase inhibitors (PARPis) have changed the treatment paradigm in breast cancer gene (BRCA) - mutant high-grade serous ovarian carcinoma (HGSC). However, most patients eventually develop resistance to PARPis, highlighting an unmet need for improved therapeutic strategies. Using high-throughput drug screens, we identified ataxia telangiectasia and rad3-related protein/checkpoint kinase 1 (CHK1) pathway inhibitors as cytotoxic and further validated the activity of the CHK1 inhibitor (CHK1i) prexasertib in PARPi-sensitive and -resistant BRCA-mutant HGSC cells and xenograft mouse models. CHK1i monotherapy induced DNA damage, apoptosis, and tumor size reduction. We then conducted a phase 2 study (NCT02203513) of prexasertib in patients with BRCA-mutant HGSC. The treatment was well tolerated but yielded an objective response rate of 6% (1 of 17; one partial response) in patients with previous PARPi treatment. […] BRCA reversion mutation in previously PARPi-treated BRCA-mutant patients was not associated with resistance to CHK1i.
Among others, 1082 oncology drugs, both approved and investigational, were prioritized based on their status in clinical trial development. […] Drugs with average Z-AUC values less than -1.0 in all three cell lines were classified as "hits" resulting in 151 oncology drug hits. The screen also confirmed cross-resistance between olaparib and other PARPis (rucaparib, niraparib, and talazoparib) in PARPi-resistant PEO1/OlaR and PEO4.
[1] G. L. Lin, K. M. Wilson, M. Ceribelli, B. Z. Stanton, P. J. Woo, S. Kreimer, E. Y. Qin, X. Zhang, J. Lennon, S. Nagaraja, P. J. Morris, M. Quezada, S. M. Gillespie, D. Y. Duveau, A. M. Michalowski, P. Shinn, R. Guha, M. Ferrer, C. Klumpp-Thomas, S. Michael, C. McKnight, P. Minhas, Z. Itkin, E. H. Raabe, L. Chen, R. Ghanem, A. C. Geraghty, L. Ni, K. I. Andreasson, N. A. Vitanza, K. E.Warren, C. J. Thomas, M. Monje, Therapeutic strategies for diffuse midline glioma from high-throughput combination drug screening. Sci. Transl. Med. 11, (2019).
[2] T. M. Yamamoto, A. McMellen, Z. L. Watson, J. Aguilera, R. Ferguson, E. Nurmemmedov, T. Thakar, G. L. Moldovan, H. Kim, D. M. Cittelly, A. M. Joglar, E. P. Brennecke, H. Wilson, K. Behbakht, M. J. Sikora, B. G. Bitler, Activation of Wnt signaling promotes olaparib resistant ovarian cancer. Mol. Carcinog. 58, 1770 - 1782 (2019).
PROTOCOL TABLE (as described by Inglese J, Shamu CE and Guy RK. 2007)
SEQUENCE No. (e.g., 1, 2, 3, etc.); […] (e.g., Cells, Incubation, Reagent, etc.); VALUE; DESCRIPTION.
1; Compounds; 20nL; 1536-well white tissue culture-treated plates.
2; Cells; 5 uL; PEO1, PEO4, and PEO1/OlaR cells at 600 cells per well.
3; Incubation; 96 hr; 37C, 95% humidity, 5% CO2.
4; Reagent; 3 uL; CellTiter-Glo (Promega).
5; Incubation; 15 min; room temperature.
6; Detection; Luminescence, PHERAstar (BMG Labtech) plate reader.
NOTES (numbers refer to Sequence numbers above)
1. MIPE 5.0 compounds were acoustically dispensed by Echo Acoustic Liquid Handler (Beckman Coulter Life Sciences). Each compound was plated at an 11-point concentration range with 1:3 dilution. Bortezomib, a proteasome inhibitor (final concentration, 20 uM), was used as a positive.
2. PEO1, PEO4, and PEO1/OlaR were trypsinized and dispensed in 5 uLof growth medium using a Multidrop Combi dispenser at a density of 600 cells per well to allow compounds to be present during the exponential growth phase.
3. Plates were incubated for 96 hours at standard incubator conditions and covered by a stainless steel gasketed lid to prevent evaporation.
4. Three microliters of CellTiter-Glo (Promega) were added to each well.
5. Plates were incubated at room temperature for 15 min with a stainless-steel lid in place.
6. Luminescence readings were taken using PHERAstar (BMG Labtech). […]
Tags give direction and shape of the fitted curve.

For `C/C=C(\C)C(=O)N[C@@H](c1ccccc1)[C@@H](O)C(=O)O[C@H]1C[C@@]2(O)[C@@H](OC(=O)c3ccccc3)[C@@H]3[C@]4(OC(C)=O)CO[C@@H]4C[C@H](O)[C@@]3(C)C(=O)[C@H](OC(C)=O)C(=C1C)C2(C)C`, which AC50 is on record?
The AC50 was 13.8 nM [falling, full curve].

For `CC1=C(O)C(=O)C=C2C1=CC=C1[C@@]2(C)CC[C@@]2(C)[C@@H]3C[C@](C)(C(=O)O)CC[C@]3(C)CC[C@]12C`, which AC50 is on record?
The AC50 was 1100 nM [falling, full curve].

Which AC50 does the source give for `NC(=O)[C@@H](CC1CC1)[C@@H](CCC(F)(F)F)C(=O)N[C@H]1N=C(c2ccccc2)c2cccc(F)c2NC1=O` here?
Its AC50 is 24500 nM [rising, single point].

Which AC50 does the source give for `Cc1sc2c(c1C)C(c1ccc(Cl)cc1)=N[C@@H](CC(=O)OC(C)(C)C)c1nnc(C)n1-2` here?
Its AC50 is 549 nM [falling, full curve].

With `C[C@@H]1O[C@@H](O[C@@H]2C=C3CC[C@@H]4[C@H](CC[C@]5(C)[C@@H](c6ccc(=O)oc6)CC[C@]45O)[C@@]3(C)CC2)[C@H](O)[C@H](O)[C@H]1O` as the compound, how does the AC50 read?
The AC50 was 49 nM [falling, full curve].

Which AC50 does the source give for `COc1cccc2c1C(=O)c1c(O)c3c(c(O)c1C2=O)C[C@@](O)(C(=O)CO)CC3OC1CC(N2CCOC(OC)C2)C(O)C(C)O1` (stereo not given in full) here?
The AC50 was 4.4 nM [falling, full curve].

With `C[C@@H]1CN(Cc2ccc(F)cc2)CCN1C(=O)COc1ccc(Cl)cc1NC(N)=O` as the compound, how does the AC50 read?
The AC50 was 1100 nM [falling, partial curve].

For `C=C(C)[C@@H]1CCC(C)=C[C@H]1c1c(O)cc(CCCCC)cc1O`, which AC50 is on record?
Its AC50 is 195 nM [falling, full curve].

For `Cc1[nH]nc2ccc(-c3cncc(OC[C@@H](N)Cc4c[nH]c5ccccc45)c3)cc12`, which AC50 is on record?
Its AC50 is 389 nM [falling, full curve].

For `CC(C)[C@]12O[C@H]1[C@@H]1O[C@@]13[C@@]1(C)CCC4=C(COC4=O)[C@@H]1C[C@@H]1O[C@@]13C2=O`, which AC50 is on record?
The AC50 was 275 nM [falling, full curve].

For `Cc1c(N)nc([C@H](CC(N)=O)NC[C@@H](N)C(N)=O)nc1C(=O)N[C@H](C(=O)N[C@@H](C)[C@H](O)[C@@H](C)C(=O)N[C@@H](C(=O)NCCc1nc(-c2nc(C(=O)NCCC[S+](C)C)cs2)cs1)[C@@H](C)O)C(O[C@H]1O[C@H](CO)[C@H](O)[C@@H](O)[C@H]1O[C@H]1O[C@H](CO)[C@@H](O)[C@H](OC(N)=O)[C@@H]1O)c1cnc[nH]1` (stereo not given in full), which AC50 is on record?
The AC50 was 37.9 nM [falling, full curve, poor fit].

With `COc1cc([C@@H]2c3cc4c(cc3[C@@H](O)C3COC(=O)C32)OCO4)cc(OC)c1O` (stereo not given in full) as the compound, how does the AC50 read?
Its AC50 is 616 nM [falling, full curve].

For `N=c1c2c(-c3ccccc3)c(-c3ccccc3)n(Cc3ccccc3)c2ncn1C1CCC(O)CC1` (stereo not given), which AC50 is on record?
The AC50 was 15500 nM [falling, partial curve].

Which AC50 does the source give for `Fc1ccc(C(OCCN2CCN(CCCc3ccccc3)CC2)c2ccc(F)cc2)cc1` here?
The AC50 was 12300 nM [falling, partial curve].

Which AC50 does the source give for `COc1cc(C(=O)N2CC[C@@H](O)[C@@H](N)C2)cc2nc(-c3cc4ccccc4n3CC3CC3)n(C)c12` here?
Its AC50 is 15500 nM [falling, partial curve].

Which AC50 does the source give for `Cn1c(COP(=O)(NCCBr)NCCBr)cnc1[N+](=O)[O-]` here?
The AC50 was 3470 nM [rising, partial curve, poor fit].

With `CN(C)c1cc2c(cc1Sc1nc3c(N)nccc3n1CCNCC(C)(C)C)OCO2` as the compound, how does the AC50 read?
Its AC50 is 1100 nM [falling, full curve].

Which AC50 does the source give for `O=C(NCCCNc1nc(Nc2ccc(N3CCOCC3)cc2)ncc1C1CC1)C1CCC1` here?
The AC50 was 1100 nM [falling, full curve].

Which AC50 does the source give for `Cn1c(CCCCCCC(=O)NO)nc2cc(N(CCCl)CCCl)ccc21` here?
The AC50 was 13800 nM [falling, partial curve].

With `CC(C)C[C@H](CN)CC(=O)O` as the compound, how does the AC50 read?
Its AC50 is 3470 nM [rising, partial curve, poor fit].

For `O=c1[nH]c2ccc(Cl)cc2c(N[C@@H]2CN3CCC2CC3)c1-c1nc2ccccc2[nH]1`, which AC50 is on record?
Its AC50 is 155 nM [falling, full curve].

For `C/C(=C\c1csc(C)n1)[C@@H]1C[C@@H]2O[C@]2(C)CCC[C@H](C)[C@H](O)[C@@H](C)C(=O)C(C)(C)[C@@H](O)CC(=O)O1`, which AC50 is on record?
Its AC50 is 9.8 nM [falling, full curve].

same assay, conditions: PEO1/OlaR viability, CellTiter-Glo luminescence, 96 h; measured here: PEO4 viability

Which AC50 does the source give for `C/C=C(\C)C(=O)N[C@@H](c1ccccc1)[C@@H](O)C(=O)O[C@H]1C[C@@]2(O)[C@@H](OC(=O)c3ccccc3)[C@@H]3[C@]4(OC(C)=O)CO[C@@H]4C[C@H](O)[C@@]3(C)C(=O)[C@H](OC(C)=O)C(=C1C)C2(C)C` here?
The AC50 was 8.7 nM [falling, full curve].

For `O=S(=O)(CC1CS1)c1ccc(Oc2ccccc2)cc1` (stereo not given), which AC50 is on record?
Its AC50 is 24500 nM [falling, single point].

With `CC1=C(O)C(=O)C=C2C1=CC=C1[C@@]2(C)CC[C@@]2(C)[C@@H]3C[C@](C)(C(=O)O)CC[C@]3(C)CC[C@]12C` as the compound, how does the AC50 read?
Its AC50 is 977 nM [falling, full curve].

With `Cc1sc2c(c1C)C(c1ccc(Cl)cc1)=N[C@@H](CC(=O)OC(C)(C)C)c1nnc(C)n1-2` as the compound, how does the AC50 read?
Its AC50 is 195 nM [falling, full curve].

Which AC50 does the source give for `C[C@@H]1O[C@@H](O[C@@H]2C=C3CC[C@@H]4[C@H](CC[C@]5(C)[C@@H](c6ccc(=O)oc6)CC[C@]45O)[C@@]3(C)CC2)[C@H](O)[C@H](O)[C@H]1O` here?
The AC50 was 15.5 nM [falling, full curve].

With `COc1cccc2c1C(=O)c1c(O)c3c(c(O)c1C2=O)C[C@@](O)(C(=O)CO)CC3OC1CC(N2CCOC(OC)C2)C(O)C(C)O1` (stereo not given in full) as the compound, how does the AC50 read?
Its AC50 is 8.7 nM [falling, full curve].

Which AC50 does the source give for `C[C@@H]1CN(Cc2ccc(F)cc2)CCN1C(=O)COc1ccc(Cl)cc1NC(N)=O` here?
The AC50 was 4360 nM [falling, full curve].

Which AC50 does the source give for `Cc1[nH]nc2ccc(-c3cncc(OC[C@@H](N)Cc4c[nH]c5ccccc45)c3)cc12` here?
The AC50 was 138 nM [falling, full curve].

Which AC50 does the source give for `CC(C)[C@]12O[C@H]1[C@@H]1O[C@@]13[C@@]1(C)CCC4=C(COC4=O)[C@@H]1C[C@@H]1O[C@@]13C2=O` here?
The AC50 was 77.6 nM [falling, full curve].

For `COc1cc([C@@H]2c3cc4c(cc3[C@@H](O)C3COC(=O)C32)OCO4)cc(OC)c1O` (stereo not given in full), which AC50 is on record?
Its AC50 is 110 nM [falling, full curve].

Which AC50 does the source give for `N=c1c2c(-c3ccccc3)c(-c3ccccc3)n(Cc3ccccc3)c2ncn1C1CCC(O)CC1` (stereo not given) here?
Its AC50 is 4360 nM [falling, partial curve].

With `Fc1ccc(C(OCCN2CCN(CCCc3ccccc3)CC2)c2ccc(F)cc2)cc1` as the compound, how does the AC50 read?
The AC50 was 13800 nM [falling, partial curve].

With `COc1cc(C(=O)N2CC[C@@H](O)[C@@H](N)C2)cc2nc(-c3cc4ccccc4n3CC3CC3)n(C)c12` as the compound, how does the AC50 read?
The AC50 was 21900 nM [falling, partial curve].

For `CN(C)c1cc2c(cc1Sc1nc3c(N)nccc3n1CCNCC(C)(C)C)OCO2`, which AC50 is on record?
Its AC50 is 2190 nM [falling, partial curve, poor fit].

For `O=C(NCCCNc1nc(Nc2ccc(N3CCOCC3)cc2)ncc1C1CC1)C1CCC1`, which AC50 is on record?
The AC50 was 8710 nM [falling, partial curve].

For `Cn1c(CCCCCCC(=O)NO)nc2cc(N(CCCl)CCCl)ccc21`, which AC50 is on record?
The AC50 was 13800 nM [falling, partial curve].

For `O=c1[nH]c2ccc(Cl)cc2c(N[C@@H]2CN3CCC2CC3)c1-c1nc2ccccc2[nH]1`, which AC50 is on record?
The AC50 was 195 nM [falling, full curve].

Which AC50 does the source give for `C/C(=C\c1csc(C)n1)[C@@H]1C[C@@H]2O[C@]2(C)CCC[C@H](C)[C@H](O)[C@@H](C)C(=O)C(C)(C)[C@@H](O)CC(=O)O1` here?
The AC50 was 5.5 nM [falling, full curve, poor fit].
